Measured values taken from PubChem BioAssay AID1745853 (National Center for Advancing Translational Sciences (NCATS), 2022).
Where “and” joins values, the source holds several entries; their conditions need not be identical. Identical values can stand only once. The list shows a part of the results. The main result of the screen is listed elsewhere. These columns were measured beside it and carry no call.

Legend:
Experiment in all cases: Primary Screen for Target Class Profiling of Small Molecule Inhibitors of Methyltransferases
[1] = molecular target: Glycine N-methyltransferase (Homo sapiens) (UniProt Q14749); settings: purified enzyme, MTase-Glo SAH luminescence; measured here: GNMT inhibition; at 40 µM; stronger effect = lower value
In short: (§1)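 Each enzyme was assayed with SAM and its substrate. SAH formation detected by MTase-Glo luminescence; single-point 40 uM screen[…].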

[2] = molecular target: Guanidinoacetate N-methyltransferase (Homo sapiens) (UniProt Q14353); settings: purified enzyme, MTase-Glo SAH luminescence; measured here: GAMT inhibition; at 40 µM; stronger effect = lower value
In short: as §1

[3] = molecular target: Histamine N-methyltransferase (Homo sapiens) (UniProt P50135); settings: purified enzyme, MTase-Glo SAH luminescence; measured here: HNMT inhibition; at 40 µM; stronger effect = lower value
In short: as §1

[4] = molecular target: Nicotinamide N-methyltransferase (Homo sapiens) (UniProt P40261); settings: purified enzyme, MTase-Glo SAH luminescence; measured here: NNMT inhibition; at 40 µM; stronger effect = lower value
In short: as §1

[5] = molecular target: Phenylethanolamine N-methyltransferase (Homo sapiens) (UniProt P11086); settings: purified enzyme, MTase-Glo SAH luminescence; measured here: PNMT inhibition; at 40 µM; stronger effect = lower value
In short: as §1
% is set by controls: 0 for no effect and ±100 for the full control effect.

| Compound | activity change, negative = inhibition [1] | activity change, negative = inhibition [2] [%] | activity change, negative = inhibition [3] | activity change, negative = inhibition [4] | activity change, negative = inhibition [5] [%] |
| --- | --- | --- | --- | --- | --- |
| O=C1Cc2c(-c3cc4ccccc4o3)n[nH]c2CN1Cc1ccccc1 | -24.4% | -16.9 | -9.15% | -20.5% | -15 |
| CSc1cccc(N2C(=O)CSc3c(c4ccccc4n3C)C2C(=O)NCCCOC(C)C)c1 (stereo not drawn) | 1.98% | 0 | 8.72% | -11.2% | 0.024 |
| O=C(CCCc1ccccc1)Nc1ccc(OC2CCNCC2)nc1 | -40.9% | -17.8 | -21.2% | -2.27% | -36.2 |
| Cn1c(=O)oc2ccc(C(=O)N[C@H](C3CCNCC3)C3CC(O)C3)cc21 (stereo partly drawn) | – | -2.65 | – | -8.52% | 4.9 |
| Cc1cnc(CC2CCN(S(=O)(=O)c3ccccc3)CC2)n1Cc1ccc(F)cc1 | -7.04% | -3.68 | -7.51% | -25.5% | -23.5 |
| O=C(NCc1nn(Cc2ccccc2)c2ccccc12)c1ccccc1C(F)(F)F | 11.4% | 0.846 | 9.05% | 0.138% | 7.93 |
| O=C(CCC[C@@H]1[C@H]2CCCN3CCC[C@@H](CN1Cc1cccnc1)[C@@H]23)N1CCN(C2CCCC2)CC1 | -7.73% | -6.52 | -26.6% | -10.2% | -0.139 |
| Cc1ccc(Cn2c(=O)c3ccccc3n3c(CCC(=O)NCCc4c[nH]c5ccccc45)nnc23)cc1 | -6.84% | 5.5 | -8.65% | -3.74% | -3.81 |
| CCCn1c(=O)c2ccccc2n2c(=O)n(CC(=O)c3ccc(F)cc3)nc12 | 2.98% | 0 | 8.83% | 7.11% | 6.45 |
| CC(C)C[C@H](NC(=O)[C@H](O)[C@H](N)Cc1ccccc1)C(=O)O | -4.44% | 3.91 | -0.693% | -3.73% | 5.34 |
| CCOc1ccccc1CNC(=O)Cn1ccc2cc(S(=O)(=O)N3CCCC3)ccc21 | -0.086% | 6.8 | -3.74% | -5.76% | 1.48 |
| COC(=O)C(CC1(O)c2ccccc2N2C(=O)C(CC(C)C)NC21)n1cnc2ccccc2c1=O (stereo not drawn) | 6.02% | 2.65 | 8.04% | -9.05% | 4.36 |
| CCOCCn1c(=O)n(C(CC)C(=O)NC(C)(C)C)c2cc(C(=O)O)cnc21 (stereo not drawn) | -3.95% | -6.6 | -1.9% | -10.6% | -5.46 |
| CCOC(=O)c1cc2n(n1)CC(C)(C(=O)NC1CCCCC1)N(CCc1cccs1)C2=O (stereo not drawn) | 4.46% | 2.39 | 7.44% | 7.02% | 3.07 |
| CC(C)Cn1c(=O)c2ccccc2n2c(CCC(=O)NCc3ccccc3)nnc12 | -0.733% | 0 | -6.63% | -6.62% | -12.3 |
| CCc1csc(CNc2cc(C3CC(O)C3)nc(N)n2)n1 (stereo not drawn) | -3.03% | 1.87 | -22.5% | 1.72% | 3.1 |
| CNC(=O)c1cc(Oc2ccc(NC(=O)Nc3ccc(Cl)c(C(F)(F)F)c3)c(F)c2)ccn1 | -9.66% | -13.3 | -0.038% | -32% | -4.83 |
| Cc1nc(CNC(=O)[C@H]2CCC[C@@H](O)C2)nc2c1CCCC2 | -1.59% | -1.8 | -0.703% | -0.926% | 0.212 |
| CC(C)CN(CC(=O)N(CCCN1CCCC1=O)CC(N)=O)C(=O)CNCCc1ccccc1F | – | 2.71 | – | -7.03% | 5.65 |
| CC(=O)O[C@@H]1CC2C(C)(C)C(=O)C=C[C@]2(C)C2CC[C@]3(C)C(=CC(=O)[C@@H]3c3ccoc3)[C@@]21C (stereo partly drawn) | 0% | 2.38 | 2.28% | -11.6% | -2.22 |
| O=C(NCC1CN(C(=O)NC2CCCCC2)CC12CCCCC2)C1CC1 (stereo not drawn) | -2.68% | -1.37 | -0.192% | -7.63% | 4.05 |

| Compound | activity change, negative = inhibition [1] | activity change, negative = inhibition [2] [%] | activity change, negative = inhibition [3] | activity change, negative = inhibition [4] | activity change, negative = inhibition [5] [%] |
| --- | --- | --- | --- | --- | --- |
| CC(C)n1cc2cc(C(=O)Nc3ccc4c(c3)OCCO4)sc2c1 | -9.63% | -3.78 | -2.88% | -7.02% | -14.1 |
| COc1cccc(CC(=O)N2CC[C@H](CO)[C@H](NC(=O)C3CC3)C2)c1 | -1.5% | -3.94 | -0.21% | -4.45% | -5.75 |
| COC[C@]1(O)CCN(C(=O)CSCc2ccccc2C)CC1(C)C | -3.48% | -7.6 | -0.779% | -1.74% | -2.55 |
| CCCC1c2ccc(C)n2CCN1C(=O)Nc1ccccc1C (stereo not drawn) | 3.81% | 0 | 1.76% | 5.57% | 1.23 |
| Cn1cc2c3c(cccc31)CN(C(=O)c1ccccc1F)CC2 | -18.2% | -11.5 | -6.15% | -71.8% | -17.8 |
| c1ccc(CNc2nc3c(-c4ccccc4)nnn3c3ccccc23)cc1 | -2.82% | 0 | 2.42% | -2.58% | -7.84 |
| CCCOc1ccc(CN2C(=O)c3cc(C(C)C)nn3CC2(C)C(=O)NC2CCCCCC2)cc1 (stereo not drawn) | -1.03% | 4.65 | 1.94% | -10.1% | 0.846 |
| CC(C)c1ccc(CN2CCC(CNS(=O)(=O)C3CC3)C2)cc1 (stereo not drawn) | -5.89% | -14.5 | -8.95% | -19.6% | -20 |
| Cc1ccc(Cn2c(=O)c3ccccc3n3c(=O)n(CC(=O)NC4CCCCC4)nc23)cc1 | 6.02% | 0 | 12.4% | 6.29% | 6.56 |
| O=C(NCCCN1CCc2ccccc2C1)C1CCc2ncc(-c3ccc(F)cc3)n2C1 (stereo not drawn) | -8.36% | -2.04 | -66.3% | -13.9% | 1.23 |
| NC(=O)CCN1CCc2onc(-c3ccccc3F)c2C1 | -7.5% | -4.68 | -1.41% | -13.3% | -8.63 |
| CN1C(=O)COC[C@@H]1[C@H](O)c1ccc(NS(=O)(=O)c2ccc(F)cc2)cc1 | -3.08% | -4.51 | -0.24% | -5.2% | -1.18 |
| C/C=C1\[C@H](O[C@@H]2O[C@H](CO)[C@@H](O)[C@H](O)[C@H]2O)OC=C(C(=O)OC)[C@H]1CC(=O)O | 0% | -5.78 | -1.65% | -15.7% | 0.902 |
| CCCC(CCC)C(=O)Nc1ccn([C@@H]2O[C@H](CO)[C@@H](O)C2(F)F)c(=O)n1 | -2.66% | 1.89 | 4.29% | -12.4% | -1.12 |
| Cn1cc([C@@H](NC(=O)CCc2ccc(=O)[nH]n2)C2CC(O)C2)cn1 (stereo partly drawn) | -4.78% | -9.59 | -3.51% | -6.78% | -8.3 |
| CN(Cc1cnccn1)C(=O)C1CCCN(C2CCN(C(=O)C3CC3)CC2)C1 (stereo not drawn) | -1.72% | -0.915 | 1.82% | 0.072% | 2.15 |
| Cc1cccc(C(=O)N2CCC(N3CC4CC(C3)[C@H]3CCCC(=O)N3C4)CC2)c1 (stereo partly drawn) | -9.22% | -2.97 | -3.79% | -13.5% | -0.243 |
| CCc1nc2c(c(-c3ccc(Cl)cc3)n1)CN([S+](C)(=O)[O-])CC2 | -10% | -4.72 | -2.28% | -12.3% | -8.02 |
| O=C(Nc1ccccc1-c1cn2c(CN3CCNCC3)csc2n1)c1cnc2ccccc2n1 | -57.2% and -2.52% | -23.1 | -67.5% and 0.818% | -41.7% and -32% | -44.8 |
| Cc1nc(C(=O)N2CCn3nc(Cc4ccccc4)cc3C2)cs1 | -6.52% | -8.88 | -3.97% | -12.1% | -8.97 |
| CCOC(=O)c1cc2n(n1)CC(C)(C(=O)NC1CCCC1)N(c1ccccc1F)C2=O (stereo not drawn) | 4.97% | 0 | 4.12% | 2.42% | 4.31 |

| Compound | activity change, negative = inhibition [1] | activity change, negative = inhibition [2] [%] | activity change, negative = inhibition [3] | activity change, negative = inhibition [4] | activity change, negative = inhibition [5] [%] |
| --- | --- | --- | --- | --- | --- |
| NC(=O)Nc1cc(-c2cccc(F)c2)sc1C(=O)NC1CCCNC1 (stereo not drawn) | -1.12% | – | -17% | – | – |
| O=C(NCc1ccc(Cl)cc1)c1ccc2c(=O)nc3c(-c4ccccc4F)n[nH]n3c2c1 | -34.1% | 1.64 | -3.11% | -3.15% | -2.44 |
| O=C(c1ccccn1)N1CCN(C(=O)N2CC3CC(C2)[C@H]2CCCC(=O)N2C3)CC1 (stereo partly drawn) | 2.62% | -3.53 | 2.8% | 1.52% | -0.393 |
| COc1ccc2c(c1OC)C(=O)O[C@@H]2[C@H]1c2c(cc3c(c2OC)OCO3)CCN1C | -0.749% | 11.9 | 3.55% | -6.63% | 6.42 |
| O=C(Cn1nc2nc(Nc3ccc(F)cc3)ccn2c1=O)Nc1ccc2c(c1)OCO2 | 2.6% | -2.35 | 14% | -8.05% | 1.5 |
| CC(C)c1ccc(NC(=O)c2cc3n(n2)CC(C)(C(=O)NC2CCCCC2)N(C)C3=O)cc1 (stereo not drawn) | -0.256% | 0.695 | 0.562% | -4.77% | -1.94 |
| COc1cc(C2Oc3c(OC)cc(/C=C/C(=O)OC[C@H]4O[C@@H](OC(C)(C)C(=O)O)[C@H](O)[C@@H](O)[C@@H]4O)cc3C2CO)ccc1O (stereo partly drawn) | -1.15% | 5.72 | 1.95% | -7.57% | 3.96 |
| Cc1ccc(Cc2nc(CCNS(=O)(=O)c3cc(C)c(C)cc3C)n[nH]2)cc1 | -9.38% | -4.02 | -11.4% | -12.3% | -9.83 |
| CCOc1ccc(-c2cc3n(n2)CC(C)(C(=O)NC2CCCCC2)N(CCCOC(C)C)C3=O)cc1 (stereo not drawn) | -0.606% | 0 | 2.67% | 1.37% | 0.848 |
| O=C(Nc1ccc(F)cc1)c1ccn2cncc2c1 | -5.91% | -4.06 | -1.82% | -6.07% | -10.4 |
| Cc1ccc(C(=O)Nc2cccc(C(F)(F)F)c2)cc1-c1ccc2nc(NCCN3CCOCC3)ncc2c1 | 1.67% | 5.86 | -11.1% | 3.11% | 11.1 |
| CN1CCN(C2CCC(n3cc(-c4ccc(Oc5ccccc5)cc4)c4c(N)ncnc43)CC2)CC1 (stereo not drawn) | -8.98% | 6.72 | -8.05% | -24.9% | -66.9 |
| Cc1ccc(S(=O)(=O)NCCN2CCN(S(=O)(=O)c3ccc(C)cc3)CC2)cc1 | -1.85% | 0 | 7.26% | 3.83% | 1.2 |
| CC(C)CCN1C(=O)CSc2c(c3ccccc3n2C)C1C(=O)NCc1ccccc1 (stereo not drawn) | 11.2% | 0 | 5.96% | 6.7% | 7.79 |
| CCCc1cc(C(=O)N[C@@H]2CCOC[C@H]2OCCO)n(C)n1 | -2.08% | -0.523 | -0.471% | -0.325% | -3.42 |
| CC1(C(=O)NC2CCCCC2)Cn2nc(-c3ccco3)cc2C(=O)N1CCc1ccccc1 (stereo not drawn) | -4.97% | -15.2 | 6.68% | -6.18% | -5.07 |
| CN(Cc1ccc2nccnc2c1)C(=O)c1cc(COc2ccc(F)cc2F)on1 | -9.44% | -8.92 | -3.12% | -35.5% | 5.79 |
| C=CCC1(CO)CCCN(Cc2nc(C)cc(-c3ccccc3)n2)C1 (stereo not drawn) | -36.4% | -1.5 | -2.15% | -8.27% | -3.21 |
| CCN(CC)c1nc2c(-c3ccc(C)cc3)nnn2c2ccccc12 | -8.57% | 1.21 | -4.49% | -4.85% | -15.1 |
